Assay [1] deals with HSkMC (human skeletal muscle cells). The assay is described as follows: cytotoxicity call (relative viability < 0.9). The settings on record: 10 µM.
The subject of assay [2] is HepG2. The assay is described as follows: cytotoxicity call (relative viability < 0.9). Conditions: 10 µM.
For assay [3], the system named is S. aureus RN4220. The assay is described as follows: growth inhibition call (relative growth <= 0.2). Conditions: 50 µM.

Molecules are shown by their SMILES. This is one part of the list.

Turning to `CN1CC2(CCNCC2)OC1=O`, the cytotoxicity call in assay [1] and in assay [2] was “inactive” throughout. Further, the growth inhibition call in assay [3] was “inactive”.
With `Cc1noc(C)c1S(=O)(=O)Nc1ccc2c(c1)C(=O)N([C@H](C)CO)C[C@@H](C)[C@@H](CN(C)Cc1ccc(C(F)(F)F)cc1)OCCCC[C@@H](C)O2`, the cytotoxicity call in assay [1] and in assay [2] was “inactive” in each case. Further, the growth inhibition call in assay [3] was “inactive”.
For the molecule `O=c1[nH]c(=O)n(C2CC(O)C(CO)O2)cc1C=CBr` (stereo not drawn), the cytotoxicity call in assay [1] and in assay [2] was “inactive” throughout. In addition, in assay [3], the growth inhibition call is “inactive”.
As for `COc1ccc(NC(=O)N(C)C[C@H]2OCCCC[C@@H](C)Oc3ccc(NC(=O)c4ccccc4)cc3C(=O)N([C@@H](C)CO)C[C@H]2C)cc1`, the cytotoxicity call in assay [1] and in assay [2] was “inactive” each time. Also, the growth inhibition call in assay [3] is “inactive”.
`CC(C)NC(=O)Nc1ccc2c(c1)C(=O)N([C@H](C)CO)C[C@H](C)[C@@H](CN(C)C(=O)C1CCCCC1)OCCCC[C@H](C)O2`: the cytotoxicity call in assay [1] and in assay [2] was “inactive” in each case. In assay [3], the growth inhibition call was “inactive”.
Regarding `CC(C)(Sc1cc(C(C)(C)C)c(O)c(C(C)(C)C)c1)Sc1cc(C(C)(C)C)c(OC(=O)CCC(=O)O)c(C(C)(C)C)c1`, the cytotoxicity call in assay [1] is “active”. In assay [2], the cytotoxicity call was “inactive”. Also, in assay [3], the growth inhibition call is “inactive”.
With `Cc1noc(C)c1NC(=O)Nc1cccc2c1O[C@@H](CN(C)Cc1ccc(C(F)(F)F)cc1)[C@@H](C)CN([C@@H](C)CO)C2=O`, the cytotoxicity call in assay [1] and in assay [2] was “inactive” each time. In assay [3], the growth inhibition call is “inactive”.
Regarding `COc1ccccc1-c1ccc2c(c1)O[C@H](CN(C)S(=O)(=O)c1ccccc1)[C@H](C)CN([C@H](C)CO)S2(=O)=O`, the cytotoxicity call in assay [1] and in assay [2] was “inactive” throughout. Further, the growth inhibition call in assay [3] is “inactive”.
For the molecule `C[C@H]1CN([C@@H](C)CO)C(=O)c2cccc(NS(C)(=O)=O)c2O[C@H]1CN(C)S(=O)(=O)c1cn(C)cn1`, the cytotoxicity call in assay [1] and in assay [2] was “inactive” throughout. Moreover, the growth inhibition call in assay [3] is “inactive”.
Turning to `C[C@@H]1CN([C@@H](C)CO)C(=O)c2c(c3ccccc3n2C)-c2ccccc2CO[C@@H]1CN(C)S(=O)(=O)c1ccc(C(F)(F)F)cc1`, the cytotoxicity call in assay [1] and in assay [2] was “inactive” each time. In assay [3], the growth inhibition call was “inactive”.
Turning to `C[C@H]1CCCCO[C@H](CN(C)C(=O)CCC(F)(F)F)[C@@H](C)CN([C@@H](C)CO)C(=O)c2cc(NC(=O)NC3CCCCC3)ccc2O1`, the cytotoxicity call in assay [1] and in assay [2] was “inactive” in each case. Moreover, the growth inhibition call in assay [3] was “inactive”.
Regarding `CC(C)C#Cc1cnc2c(c1)C(=O)N([C@@H](C)CO)C[C@H](C)[C@@H](CN(C)S(=O)(=O)c1cn(C)cn1)O2`, the cytotoxicity call in assay [1] and in assay [2] was “inactive” in each case. For the same molecule, the growth inhibition call in assay [3] was “inactive”.
On to `C[C@H]1CN([C@@H](C)CO)C(=O)c2cccc(NC(=O)Nc3cccc4ccccc34)c2O[C@H]1CN(C)Cc1ccc(C(F)(F)F)cc1`, for which the cytotoxicity call in assay [1] and in assay [2] was “inactive” each time. The growth inhibition call in assay [3] was “inactive”.
Regarding `CNC(=O)c1ccc(N)cc1`, the cytotoxicity call in assay [1] and in assay [2] was “inactive” in each case. Also, in assay [3], the growth inhibition call is “inactive”.
For `C[C@H](CO)N1C[C@H](C)[C@@H](CN(C)Cc2ccc(-c3ccccc3)cc2)Oc2ccc(NS(=O)(=O)c3ccc(Cl)cc3)cc2CC1=O`, the cytotoxicity call in assay [1] and in assay [2] was “inactive” in each case. The growth inhibition call in assay [3] was “inactive”.
Regarding `Cn1c(=O)c2c(ncn2C[C@@H](O)CNc2ccc(Br)cc2)n(C)c1=O`, the cytotoxicity call in assay [1] and in assay [2] was “inactive” in each case. Further, the growth inhibition call in assay [3] was “inactive”.
As for `CC(O)CC(C)(C)O` (stereo not drawn), the cytotoxicity call in assay [1] and in assay [2] was “inactive” in each case. Moreover, the growth inhibition call in assay [3] is “inactive”.
On to `C[C@H](CO)N1C[C@H](C)[C@@H](CN(C)Cc2ccc3c(c2)OCO3)Oc2cc(C#CCN(C)C)ccc2S1(=O)=O`, for which the cytotoxicity call in assay [1] and in assay [2] was “inactive” in each case. Besides, the growth inhibition call in assay [3] was “inactive”.
As for `C[C@@H]1CCCCO[C@@H](CN(C)C(=O)Nc2ccc3c(c2)OCO3)[C@@H](C)CN([C@@H](C)CO)C(=O)c2cc(NC(=O)NC3CCCCC3)ccc2O1`, the cytotoxicity call in assay [1] and in assay [2] was “inactive” throughout. In addition, the growth inhibition call in assay [3] was “inactive”.
`Cc1ccc(S(=O)(=O)N2C[C@H](O)COC[C@H]3O[C@@H](CC(=O)NCCCN(C)C)CC[C@@H]32)cc1`: the cytotoxicity call in assay [1] and in assay [2] was “inactive” throughout. The growth inhibition call in assay [3] was “inactive”.
Consider `COc1ccc(NC(=O)Nc2ccc3c(c2)C(=O)N([C@H](C)CO)C[C@@H](C)[C@@H](CN(C)C(=O)NC2CCCCC2)OCCCC[C@H](C)O3)cc1`, for which the cytotoxicity call in assay [1] and in assay [2] was “inactive” each time. In addition, the growth inhibition call in assay [3] was “inactive”.
With `C[C@@H]1CN([C@@H](C)CO)C(=O)c2cc(NC(=O)c3ccncc3)ccc2O[C@H]1CN(C)C(=O)Nc1ccc2c(c1)OCO2`, the cytotoxicity call in assay [1] and in assay [2] was “inactive” in each case. Also, in assay [3], the growth inhibition call was “inactive”.
Take `CC(=O)N1CCc2nc(C(N)=O)sc2CC1`: the cytotoxicity call in assay [1] and in assay [2] was “inactive” each time. Also, the growth inhibition call in assay [3] is “inactive”.
Turning to `CO[C@H]1CN(C)C(=O)c2ccc(NC(=O)c3ccc(F)cc3)cc2OC[C@H](C)N(C(=O)CN(C)C)C[C@H]1C`, the cytotoxicity call in assay [1] and in assay [2] was “inactive” in each case. The growth inhibition call in assay [3] is “inactive”.
Consider `CN1C(=O)c2cc(NC(=O)c3cccs3)ccc2OC[C@H]2O[C@H](CC(=O)NCC(F)(F)F)CC[C@H]21`, for which the cytotoxicity call in assay [1] and in assay [2] was “inactive” throughout. Besides, in assay [3], the growth inhibition call was “inactive”.
On to `COc1ccc(NC(=O)Nc2ccc3c(c2)C(=O)N([C@@H](C)CO)C[C@H](C)[C@H](CN(C)C(=O)CCC(F)(F)F)OCCCC[C@@H](C)O3)cc1`, for which the cytotoxicity call in assay [1] and in assay [2] was “inactive” each time. Further, in assay [3], the growth inhibition call is “inactive”.

(Values after the antibiotic and cytotoxicity screens of Wong et al. (2023).)
